# Measured values taken from PubChem BioAssay AID1347043 (National Center for Advancing Translational Sciences (NCATS), 2019).
# Among all 76,000 compounds or so, about 1,900 (2.5%) were called active. Where a call stands in place of a potency, no number is given. The inconclusive results got no clear call from the source; some entries with a clear call stand among them for comparison. The call rests on the fitted dose curve; in most records, active means well fitted inhibition curve with a large enough effect; inconclusive means small, poorly fitted or top-dose-only effect; inactive means flat fitted curve, though single readings scatter. A potency beside an inconclusive call is a rough fit, not a confirmed value.
# Target: Luciferin 4-monooxygenase (Photinus pyralis) (UniProt P08659)
# Test: Firefly luciferase inhibition profiling of diverse chemical library using quantitative high-throughput screening; further: nearly all actives have a fitted effect of over 65% in size
# Conditions: purified P. pyralis luciferase, luminescence, biochemical; series mostly up to 115 µM
# Method in brief: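 Purified P. pyralis luciferase (10nM final) in 50mM Tris acetate pH 7.5, 10mM Mg acetate, 0.01% Tween-20, 0.05% BSA with 10uM D-luciferin and 10uM ATP. Compounds titrated qHTS. Luminescence imaged on CCD.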
# Potency means the concentration at half of the fitted maximal effect; tags describe the fitted curve by direction and shape.
# Sequence of UniProt P08659 (P08659 whole entry, looked up): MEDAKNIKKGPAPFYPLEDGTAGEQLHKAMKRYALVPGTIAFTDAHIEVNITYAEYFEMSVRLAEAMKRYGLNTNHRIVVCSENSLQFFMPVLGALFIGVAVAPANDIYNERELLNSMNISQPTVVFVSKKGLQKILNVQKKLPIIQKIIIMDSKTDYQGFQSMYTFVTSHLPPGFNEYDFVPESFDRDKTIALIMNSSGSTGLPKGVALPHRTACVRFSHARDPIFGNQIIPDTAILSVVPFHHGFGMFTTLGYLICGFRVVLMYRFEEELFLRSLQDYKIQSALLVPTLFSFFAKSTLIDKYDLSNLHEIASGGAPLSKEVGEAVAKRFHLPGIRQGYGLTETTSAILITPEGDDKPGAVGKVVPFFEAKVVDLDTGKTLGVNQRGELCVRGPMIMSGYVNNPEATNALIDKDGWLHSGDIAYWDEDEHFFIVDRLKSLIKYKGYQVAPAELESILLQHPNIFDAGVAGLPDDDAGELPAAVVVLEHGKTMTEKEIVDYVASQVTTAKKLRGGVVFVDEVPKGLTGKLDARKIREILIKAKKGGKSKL
row,Compound,Potency
1,O=C(c1ccc(C(F)(F)F)cc1)N1CCC2(CC1)COc1ccccc1CN2,inactive
2,Cc1nc2cc(OCc3nc(C(=O)N(C)CC4(CO)CCC4)co3)ccc2s1,"inconclusive: 50.1 µM [inhibitor, partial curve]"
3,Cc1ccc(S(=O)(=O)N2CCC(Oc3ncccc3C(=O)N(C)C)C2)cc1Cl (configuration not stated),inactive
4,CCN1C(=O)C2CC3(CCN(C(=O)c4ccc(C)s4)CC3)CN2C1=O (configuration not stated),inactive
5,CCCNC(=O)Cn1c(C)ccc(NC(=O)Nc2ccc(OC)cc2)c1=O,active: 3.98 µM
6,CN1[C@@H](CCC(=O)N2CCC(O)CC2)CNC(=O)[C@@H]2[C@H]1CCN2Cc1ncc[nH]1,inactive
7,CC(C)CCN1CC[C@H](c2nc3ccccc3[nH]2)C1,active: 35.5 µM
8,CCC1Oc2ccc(NC(=O)c3cccs3)cc2CN(Cc2ccc(OC)cc2)C1=O (configuration not stated),inactive
9,CCOc1ccc(C(=O)Nc2cccc(-c3nnc4n3CCCC4)c2)cc1,active: 25.1 µM
10,CN(C)c1cccc(C(=O)N2CCC3(CC2)N=C(c2ccccc2)NO3)c1,"inconclusive: 50.1 µM [inhibitor, partial curve]"
11,CCOc1ccc(-c2cc3c(=O)n(CCNC(=O)c4ccc(OC)cc4C)ccn3n2)cc1,"inconclusive: 0.562 µM [inhibitor, full curve]"
12,CN(C)CC1(O)CCC2(CCN(C(=O)c3ccsc3)CC2)CC1,inactive
13,CC(C)c1cnc(N2CCC(COc3ccc4c(cnn4CCC(=O)O)c3)CC2)nc1,active: 14.1 µM
14,CCc1ccc(NC(=O)Cn2ccn3nc4c(c3c2=O)CCCCC4)cc1,inactive
15,COc1ccc(-n2nc(C3CCN(Cc4ccc(C#N)cc4)CC3)[nH]c2=O)cc1,inactive
16,c1ccc(-c2noc(-c3cncnc3N3CCN(c4ccccc4)CC3)n2)cc1,"inconclusive: 39.8 µM [inhibitor, partial curve, poor fit]"
17,CN(C)S(=O)(=O)N1CCCC1C(=O)Nc1ccc(-c2cccc(F)c2)cc1 (configuration not stated),"inconclusive: 39.8 µM [inhibitor, partial curve, poor fit]"
18,CCn1cc(CN2CC(Oc3ccc(-c4noc(-c5cccnc5)n4)cc3)C2)cn1,inactive
19,COc1ccc(Nc2cnc3ccc(-c4ccc(F)cc4)nn23)cc1OC,"inconclusive: 44.7 µM [inhibitor, full curve]"
20,CCCn1ccc2oc(C)c(C(=O)NCc3ccccc3Br)c2c1=O,inactive
21,Cc1ccc(NC(=O)N2C[C@@H](Oc3cccnc3)C[C@H]2C(=O)N2CCCC2)cc1C,inactive
22,O=C(Nc1ccccc1)c1nc2c(o1)CCN(Cc1ccc(O)cc1)CC2,active: 0.562 µM
